Reference: the supplement of paper PMC4967469
The IC50 comes from the fitted curve, where viability falls to half of the control; where the fit passes the top or lowest dose, that dose stands as a limit. AUC is the area under the same curve over the 256-fold range up to the top dose, as a fraction; the more sensitive the line, the further below 1. Where the top dose is marked as inferred, it is not printed in the source and was worked back from the curve model.

Legend:
Test in all cases: Viability of human cancer cell lines after 72 h of drug (GDSC screen)
NG-25 = compound: CCN1CCN(Cc2ccc(NC(=O)c3ccc(C)c(Oc4ccnc5[nH]ccc45)c3)cc2C(F)(F)F)CC1 [NG-25]; details: top dose 10.24 µM; top dose inferred
Procedure: (§1)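 Human cancer cell lines in 384-well plates, medium with 10% serum, drug for 72 h over a 256-fold dose range (nine 2-fold or five 4-fold steps up to the top dose). Adherent lines were fixed and stained with the nucleic acid dye Syto60, suspension lines read with resazurin; signal relative to control wells, capped at 0 and 100%. One two-parameter sigmoid per drug and line, fitted in a mixed model over all curves with the slope shared within a line.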

GSK-1904529A = compound: CCc1cc(Nc2nccc(-c3c(-c4ccc(OC)c(C(=O)Nc5c(F)cccc5F)c4)nc4ccccn34)n2)c(OC)cc1N1CCC(N2CCN(S(C)(=O)=O)CC2)CC1 [GSK-1904529A]; details: top dose 1.024 µM; top dose inferred
Procedure: as §1

PFI-1 = compound: COc1ccccc1S(=O)(=O)Nc1ccc2c(c1)CN(C)C(=O)N2 [PFI-1]; details: top dose 10 µM; top dose inferred
Procedure: as §1

Tipifarnib = compound: Cn1cncc1[C@@](N)(c1ccc(Cl)cc1)c1ccc2c(c1)c(-c1cccc(Cl)c1)cc(=O)n2C [Tipifarnib]; details: top dose 16 µM; top dose inferred
Procedure: as §1

Row | Cell Line | AUC (NG-25) | IC50 (NG-25) [µM] | AUC (GSK-1904529A) | IC50 (GSK-1904529A) [µM] | AUC (PFI-1) | IC50 (PFI-1) [µM] | AUC (Tipifarnib) | IC50 (Tipifarnib) [µM]
1 | ME-180 (cervix, adherent) | 0.874 | > 10.2 | 0.965 | > 1.02 | 0.84 | 7.32 | 0.746 | 5.26
2 | MEL-JUSO (melanoma, adherent) | 0.81 | 6.16 | 0.946 | > 1.02 | 0.927 | > 10 | 0.133 | < 0.0625
3 | MES-SA (uterus, adherent) | 0.992 | > 10.2 | 0.984 | > 1.02 | 0.856 | 6.22 | 0.693 | 3.15
4 | MFE-280 (endometrium, adherent) | 0.646 | 1.82 | 0.981 | > 1.02 | 0.961 | > 10 | 0.923 | > 16
5 | MFE-296 (endometrium, adherent) | 0.955 | > 10.2 | 0.985 | > 1.02 | 0.885 | > 10 | 0.521 | 1.15
6 | MFE-319 (endometrium, adherent) | 0.906 | > 10.2 | 0.978 | > 1.02 | 0.886 | > 10 | 0.577 | 1.62
7 | MG-63 (osteosarcoma, adherent) | 0.98 | > 10.2 | 0.961 | > 1.02 | 0.788 | 5.14 | 0.568 | 1.58
8 | MHH-ES-1 (Ewing sarcoma, adherent) | 0.672 | 1.91 | 0.977 | > 1.02 | 0.805 | 4.96 | 0.685 | 3.28
9 | MKN1 (stomach, adherent) | 0.953 | > 10.2 | 0.958 | > 1.02 | 0.902 | > 10 | 0.585 | 1.73
10 | MKN28 (stomach, adherent) | 0.862 | 9.07 | 0.966 | > 1.02 | 0.811 | 5.47 | 0.49 | 0.941
11 | MKN45 (stomach, adherent) | 0.922 | > 10.2 | 0.974 | > 1.02 | 0.916 | > 10 | 0.648 | 2.87
12 | ML-1 (thyroid, adherent) | 0.883 | > 10.2 | 0.887 | > 1.02 | 0.955 | > 10 | 0.603 | 2.02
13 | MOG-G-CCM (glioma, adherent) | 0.768 | 4.48 | 0.945 | > 1.02 | 0.909 | > 10 | 0.633 | 2.48
14 | MOG-G-UVW (glioma, adherent) | 0.958 | > 10.2 | 0.98 | > 1.02 | 0.795 | 4.52 | 0.81 | 8.11
15 | MS751 (cervix, adherent) | 0.981 | > 10.2 | 0.98 | > 1.02 | 0.828 | 5.51 | 0.77 | 5.64
16 | Mewo (melanoma, adherent) | 0.977 | > 10.2 | 0.974 | > 1.02 | 0.865 | > 10 | 0.613 | 2.18
17 | NB12 (neuroblastoma, adherent) | 0.915 | > 10.2 | 0.966 | > 1.02 | 0.807 | 7.4 | 0.774 | 8.6
18 | NCI-H28 (mesothelioma, adherent) | 0.891 | > 10.2 | 0.935 | > 1.02 | 0.904 | > 10 | 0.776 | 8.52
19 | NCI-H196 (small cell lung carcinoma, adherent) | 0.895 | > 10.2 | 0.988 | > 1.02 | 0.979 | > 10 | 0.928 | > 16
20 | NCI-H292 (lung adenocarcinoma, adherent) | 0.684 | 2.36 | 0.973 | > 1.02 | 0.717 | 2.98 | 0.707 | 4.4
21 | NCI-H441 (lung adenocarcinoma, adherent) | 0.981 | > 10.2 | 0.978 | > 1.02 | 0.929 | > 10 | 0.671 | 3.66
22 | NCI-H460 (large cell lung carcinoma, adherent) | 0.855 | 6.97 | 0.977 | > 1.02 | 0.962 | > 10 | 0.651 | 2.5
23 | NCI-H520 (lung squamous cell carcinoma, adherent) | 0.659 | 1.8 | 0.972 | > 1.02 | 0.968 | > 10 | 0.607 | 1.99
24 | NCI-H522 (lung adenocarcinoma, adherent) | 0.853 | > 10.2 | 0.959 | > 1.02 | 0.831 | 8.04 | 0.585 | 1.78
25 | NCI-H596 (lung adenocarcinoma, adherent) | 0.962 | > 10.2 | 0.98 | > 1.02 | 0.876 | > 10 | 0.586 | 1.84
26 | NCI-H650 (lung adenocarcinoma, adherent) | 0.918 | > 10.2 | 0.986 | > 1.02 | 0.857 | 9.47 | 0.873 | > 16
27 | NCI-H661 (large cell lung carcinoma, adherent) | 0.899 | > 10.2 | 0.971 | > 1.02 | 0.936 | > 10 | 0.76 | 6.78
28 | NCI-H727 (lung carcinoid, adherent) | 0.977 | > 10.2 | 0.922 | > 1.02 | 0.88 | > 10 | 0.504 | 1.03
29 | NCI-H810 (large cell lung carcinoma, adherent) | 0.851 | 7.34 | 0.954 | > 1.02 | 0.83 | 5.93 | 0.594 | 1.79
30 | NCI-H838 (lung adenocarcinoma, adherent) | 0.856 | 8.81 | 0.971 | > 1.02 | 0.874 | > 10 | 0.855 | 13.6
